These are yes or no findings as the source states them, for the method shown. For part of these data: In cells and extracts the contact can be indirect. Some binding calls cover weakened binding; strength is not graded here. For part of these data: Tags and fused reporters may be left off the sequences shown. Each block holds one binder with its values, some of them ahead of it.
Legend:
[1] = biological target: T1, Alveolar Soft Part Sarcoma Locus protein (ASPL; human, endogenous in primary adipocytes) (human (endogenous in primary adipocytes)) (UniProt Q9BZE9); assay: proximity ligation; in situ PLA (Duolink) on fixed, permeabilised human primary adipocytes; primary antibodies against GLUT4 (rabbit) and ASPL (mouse); confocal microscopy
T1 sequence: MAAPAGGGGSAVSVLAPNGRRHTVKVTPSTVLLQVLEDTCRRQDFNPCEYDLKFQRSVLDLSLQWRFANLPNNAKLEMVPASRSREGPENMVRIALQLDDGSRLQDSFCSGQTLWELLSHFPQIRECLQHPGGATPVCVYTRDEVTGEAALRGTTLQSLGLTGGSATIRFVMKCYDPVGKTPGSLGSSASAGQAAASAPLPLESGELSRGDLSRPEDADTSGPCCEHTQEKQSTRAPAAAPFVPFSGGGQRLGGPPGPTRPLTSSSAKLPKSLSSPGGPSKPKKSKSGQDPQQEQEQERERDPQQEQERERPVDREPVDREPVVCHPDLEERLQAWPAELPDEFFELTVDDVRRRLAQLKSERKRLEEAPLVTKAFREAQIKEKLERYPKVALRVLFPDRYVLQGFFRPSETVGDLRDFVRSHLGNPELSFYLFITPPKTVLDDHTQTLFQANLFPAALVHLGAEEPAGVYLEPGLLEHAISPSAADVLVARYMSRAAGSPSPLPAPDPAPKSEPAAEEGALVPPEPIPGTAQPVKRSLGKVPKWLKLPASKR

[2] = biological target: T2, C-terminal domain of ASPL (ASPL-C, residues 313-553) (human) (UniProt Q9BZE9); assay: cross-linking; 5 μg Trx-ICH_(GLUT4) incubated with ASPL-C 15 min at 37 °C, cross-linked with DSS-H12/D12 (0 to 2 mM) 30 min at 37 °C; digestion and LC-MS/MS (MeroX, pLink 2); both purified
T2 sequence: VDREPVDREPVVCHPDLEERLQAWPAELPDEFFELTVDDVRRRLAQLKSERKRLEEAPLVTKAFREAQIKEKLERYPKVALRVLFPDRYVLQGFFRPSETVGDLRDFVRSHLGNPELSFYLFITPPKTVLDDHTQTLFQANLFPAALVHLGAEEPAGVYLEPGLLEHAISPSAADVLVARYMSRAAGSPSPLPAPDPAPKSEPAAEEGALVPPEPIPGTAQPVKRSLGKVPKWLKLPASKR

[3] = biological target: His-tagged thioredoxin (Trx) [thioredoxin: P0AA25]; assay: pull-down; 10 μg Trx-ICH_(GLUT4) or Trx immobilised on Ni-NTA agarose, incubated with ASPL-C overnight at 4 °C, washed with PBS, eluted with 300 mM imidazole; western blot with anti-His and anti-ASPL antibodies; both purified
[4] = biological target: T3, Thioredoxin fused C-terminally with human GLUT4 intracellular helical bundle (residues 225-271, I232C/K264C) (human) (UniProt P14672); assay: as above
T3 sequence: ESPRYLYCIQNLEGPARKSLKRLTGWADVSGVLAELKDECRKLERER

[5] = biological target: T2, C-terminal domain of ASPL (ASPL-C, residues 313-553) (human); assay: far-Western, overlay or dot blot; far dot western blot: 100 pmol ASPL-C spotted on nitrocellulose, blocked, exposed to GLUT4 yeast lysate 40 min at room temperature, washed with PBS with 0.1% DM, detected with GLUT4 antibody; only the target purified
[6] = biological target: T4, GST-tagged human full-length ASPL with C-terminal His tag (human) (UniProt Q9BZE9); assay: pull-down; pure GST-ASPL immobilised on glutathione-Sepharose 4B beads, incubated with GLUT4 yeast lysate 1 h at 4 °C, washed with PBS, eluted with 30 mM reduced glutathione; western blot with GST and GLUT4 antibodies; beads alone as control; only the target purified
T4 sequence: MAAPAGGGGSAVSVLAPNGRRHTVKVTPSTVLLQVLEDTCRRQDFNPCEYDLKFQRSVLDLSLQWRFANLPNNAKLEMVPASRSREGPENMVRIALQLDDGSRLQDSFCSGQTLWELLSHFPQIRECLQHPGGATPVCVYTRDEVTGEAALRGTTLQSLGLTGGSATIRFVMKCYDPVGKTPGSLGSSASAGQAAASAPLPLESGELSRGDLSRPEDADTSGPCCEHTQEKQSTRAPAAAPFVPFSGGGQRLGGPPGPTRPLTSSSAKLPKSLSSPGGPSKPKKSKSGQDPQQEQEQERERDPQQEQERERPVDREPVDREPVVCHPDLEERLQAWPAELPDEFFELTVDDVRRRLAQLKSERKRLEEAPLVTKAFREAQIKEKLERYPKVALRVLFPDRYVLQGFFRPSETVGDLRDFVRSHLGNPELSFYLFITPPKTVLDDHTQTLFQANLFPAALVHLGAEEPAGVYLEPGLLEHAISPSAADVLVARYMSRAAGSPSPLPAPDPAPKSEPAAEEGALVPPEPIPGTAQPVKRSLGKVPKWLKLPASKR

binding [2]: binds
Binder: ESPRYLYCIQNLEGPARKSLKRLTGWADVSGVLAELKDECRKLERER (domain or fragment, UniProt P14672 225-271)

binding [5]: binds
binding [6]: binds
B3: Rat GLUT4 with N-terminal poly-histidine tag (protein, UniProt P19357 1-509)
chain: MPSGFQQIGSEDGEPPQQRVTGTLVLAVFSAVLGSLQFGYNIGVINAPQKVIEQSYNATWLGRQGPGGPDSIPQGTLTTLWALSVAIFSVGGMISSFLIGIISQWLGRKRAMLANNVLAVLGGALMGLANAAASYEILILGRFLIGAYSGLTSGLVPMYVGEIAPTHLRGALGTLNQLAIVIGILVAQVLGLESMLGTATLWPLLLAITVLPALLQLLLLPFCPESPRYLYIIRNLEGPARKSLKRLTGWADVSDALAELKDEKRKLERERPLSLLQLLGSRTHRQPLIIAVVLQLSQQLSGINAVFYYSTSIFELAGVEQPAYATIGAGVVNTVFTLVSVLLVERAGRRTLHLLGLAGMCGCAILMTVALLLLERVPSMSYVSIVAIFGFVAFFEIGPGPIPWFIVAELFSQGPRPAAMAVAGFSNWTCNFIVGMGFQYVADAMGPYVFLLFAVLLLGFFIFTFLRVPETRGRTFDQISATFRRTPSLLEQEVKPSTELEYLGPDEND

Continued, binder first:

B1: Glucose transporter GLUT4 (human, endogenous in primary adipocytes) (protein, UniProt P14672 1-509)
chain: MPSGFQQIGSEDGEPPQQRVTGTLVLAVFSAVLGSLQFGYNIGVINAPQKVIEQSYNETWLGRQGPEGPSSIPPGTLTTLWALSVAIFSVGGMISSFLIGIISQWLGRKRAMLVNNVLAVLGGSLMGLANAAASYEMLILGRFLIGAYSGLTSGLVPMYVGEIAPTHLRGALGTLNQLAIVIGILIAQVLGLESLLGTASLWPLLLGLTVLPALLQLVLLPFCPESPRYLYIIQNLEGPARKSLKRLTGWADVSGVLAELKDEKRKLERERPLSLLQLLGSRTHRQPLIIAVVLQLSQQLSGINAVFYYSTSIFETAGVGQPAYATIGAGVVNTVFTLVSVLLVERAGRRTLHLLGLAGMCGCAILMTVALLLLERVPAMSYVSIVAIFGFVAFFEIGPGPIPWFIVAELFSQGPRPAAMAVAGFSNWTSNFIIGMGFQYVAEAMGPYVFLLFAVLLLGFFIFTFLRVPETRGRTFDQISAAFHRTPSLLEQEVKPSTELEYLGPDEND
binding [1]: binds

B2: C-terminal domain of ASPL (ASPL-C, residues 313-553) (domain or fragment, UniProt Q9BZE9 313-553)
chain: VDREPVDREPVVCHPDLEERLQAWPAELPDEFFELTVDDVRRRLAQLKSERKRLEEAPLVTKAFREAQIKEKLERYPKVALRVLFPDRYVLQGFFRPSETVGDLRDFVRSHLGNPELSFYLFITPPKTVLDDHTQTLFQANLFPAALVHLGAEEPAGVYLEPGLLEHAISPSAADVLVARYMSRAAGSPSPLPAPDPAPKSEPAAEEGALVPPEPIPGTAQPVKRSLGKVPKWLKLPASKR
binding [3]: no binding
binding [4]: binds

— article PMC10626271
